Key:
[1] = system: A2780 ovarian cancer cells; test: Comet assay of gemcitabine-induced DNA damage; assay type: cell-based; details: in combination with gemcitabine
mTOR = mTOR (Homo sapiens, UniProt P42345); test: Kinase selectivity panel, mTOR; assay type: biochemical
AKT3 = AKT3 (Homo sapiens, UniProt Q9Y243); test: Kinase selectivity panel, AKT3; assay type: biochemical
AKT2 = AKT2 (Homo sapiens, UniProt P31751); test: Kinase selectivity panel, AKT2; assay type: biochemical
A431 xenografts = test: A431 xenografts, erlotinib and CX-4945; assay type: in vivo; details: for tumor growth, used alone: single agent
Excerpt: (§1) Erlotinib targets the epidermal growth factor receptor (EGFR) and is used to treat NSCLC and pancreatic cancer, amongst other cancer types.

CLK3 = CLK3 (Homo sapiens, UniProt P49761); test: Kinase selectivity panel, CLK3; assay type: biochemical
Sequence of UniProt P49761 (P49761 whole entry): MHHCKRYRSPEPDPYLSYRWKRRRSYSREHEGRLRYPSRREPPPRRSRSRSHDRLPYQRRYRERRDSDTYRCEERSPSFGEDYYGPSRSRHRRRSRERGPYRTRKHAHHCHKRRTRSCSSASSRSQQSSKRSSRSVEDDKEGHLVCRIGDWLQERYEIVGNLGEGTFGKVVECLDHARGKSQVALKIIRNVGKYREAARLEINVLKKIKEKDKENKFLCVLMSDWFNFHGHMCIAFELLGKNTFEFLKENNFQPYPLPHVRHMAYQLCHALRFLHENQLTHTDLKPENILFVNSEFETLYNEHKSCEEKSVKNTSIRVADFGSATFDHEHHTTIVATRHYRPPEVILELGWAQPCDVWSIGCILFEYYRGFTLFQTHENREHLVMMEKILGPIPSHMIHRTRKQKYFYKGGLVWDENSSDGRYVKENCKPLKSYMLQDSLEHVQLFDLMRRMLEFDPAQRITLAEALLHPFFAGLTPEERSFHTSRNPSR

PI3K (p110δ/p85α) = PI3K (p110δ/p85α) (Homo sapiens, UniProt O00329); test: Kinase selectivity panel, PI3K (p110δ/p85α); assay type: biochemical
Sequence of UniProt O00329 (O00329 whole entry): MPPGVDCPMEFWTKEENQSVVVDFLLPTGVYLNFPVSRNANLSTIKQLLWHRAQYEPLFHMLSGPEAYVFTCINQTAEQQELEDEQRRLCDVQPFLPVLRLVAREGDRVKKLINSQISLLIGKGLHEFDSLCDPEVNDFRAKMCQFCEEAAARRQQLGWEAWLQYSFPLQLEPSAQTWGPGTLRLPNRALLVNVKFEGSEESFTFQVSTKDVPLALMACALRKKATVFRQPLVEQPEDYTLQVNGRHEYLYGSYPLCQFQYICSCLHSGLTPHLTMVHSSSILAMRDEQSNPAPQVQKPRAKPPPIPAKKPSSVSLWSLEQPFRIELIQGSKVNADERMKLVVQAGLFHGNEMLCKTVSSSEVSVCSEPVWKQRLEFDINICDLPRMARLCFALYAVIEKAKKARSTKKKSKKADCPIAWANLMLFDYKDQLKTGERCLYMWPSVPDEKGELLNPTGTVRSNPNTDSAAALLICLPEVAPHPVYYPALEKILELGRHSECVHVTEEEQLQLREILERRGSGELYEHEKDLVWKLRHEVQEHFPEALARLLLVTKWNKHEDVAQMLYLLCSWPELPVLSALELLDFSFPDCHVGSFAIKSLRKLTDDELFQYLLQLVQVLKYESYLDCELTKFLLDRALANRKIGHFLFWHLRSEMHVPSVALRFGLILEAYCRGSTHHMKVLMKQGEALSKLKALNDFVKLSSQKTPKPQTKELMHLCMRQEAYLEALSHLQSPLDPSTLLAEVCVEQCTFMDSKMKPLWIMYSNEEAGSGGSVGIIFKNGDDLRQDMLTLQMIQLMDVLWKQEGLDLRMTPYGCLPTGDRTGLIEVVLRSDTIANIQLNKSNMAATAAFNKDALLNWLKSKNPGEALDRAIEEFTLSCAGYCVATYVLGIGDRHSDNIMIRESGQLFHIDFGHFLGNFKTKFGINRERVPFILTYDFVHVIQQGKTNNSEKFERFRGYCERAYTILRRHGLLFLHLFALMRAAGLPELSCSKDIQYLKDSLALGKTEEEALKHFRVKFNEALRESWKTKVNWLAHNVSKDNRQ
Sequence of UniProt O00329 (P27986 whole entry partner): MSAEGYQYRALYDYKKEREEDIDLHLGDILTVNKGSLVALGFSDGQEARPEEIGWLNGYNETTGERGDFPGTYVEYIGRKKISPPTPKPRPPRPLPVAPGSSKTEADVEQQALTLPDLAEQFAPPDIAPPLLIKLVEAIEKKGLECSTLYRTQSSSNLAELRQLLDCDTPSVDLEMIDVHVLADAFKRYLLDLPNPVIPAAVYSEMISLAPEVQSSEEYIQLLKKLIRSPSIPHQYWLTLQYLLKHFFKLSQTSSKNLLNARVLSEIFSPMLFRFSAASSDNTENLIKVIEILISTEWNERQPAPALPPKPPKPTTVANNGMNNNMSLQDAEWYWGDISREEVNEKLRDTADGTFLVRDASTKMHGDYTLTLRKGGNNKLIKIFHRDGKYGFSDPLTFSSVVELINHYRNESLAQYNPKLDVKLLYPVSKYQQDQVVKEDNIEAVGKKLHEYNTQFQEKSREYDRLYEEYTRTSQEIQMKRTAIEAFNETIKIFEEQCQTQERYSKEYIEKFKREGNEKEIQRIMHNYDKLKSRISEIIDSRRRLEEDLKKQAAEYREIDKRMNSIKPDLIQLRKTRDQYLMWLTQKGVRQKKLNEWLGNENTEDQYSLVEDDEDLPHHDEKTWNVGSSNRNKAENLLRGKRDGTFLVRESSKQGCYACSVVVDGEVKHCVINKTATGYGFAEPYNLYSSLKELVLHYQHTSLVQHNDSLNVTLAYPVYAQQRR

[2] = system: U266 multiple myeloma cells; test: IL-6 production in U266 multiple myeloma cells; assay type: cell-based, human
[3] = system: NCI-H1650 and NCI-H1975 cells; test: Phosphorylation of Akt and rpS6, combination with erlotinib; assay type: cell-based; details: 10 μM CX-4945 in combination with 50 μM erlotinib
Excerpt: as §1

[4] = system: A431 (epidermoid carcinoma) and NCI-H2170 (lung cancer cells); test: EGF-stimulated CK2 activity; details: 100 ng/ml EGF, 10 μM CX-4945; both cell types
A2780 xenografts = test: A2780 ovarian cancer xenografts, combination with gemcitabine; assay type: in vivo; details: gemcitabine 60 mg/kg and CX-4945 100 mg/kg
Akt-S129 phosphorylation = test: Akt-S129 phosphorylation, CX-4945 compared with staurosporine; assay type: cell-based
AKT1 = AKT1 (Homo sapiens, UniProt P31749); test: Kinase selectivity panel, AKT1; assay type: biochemical
Sequence of UniProt P31749 (P31749 whole entry): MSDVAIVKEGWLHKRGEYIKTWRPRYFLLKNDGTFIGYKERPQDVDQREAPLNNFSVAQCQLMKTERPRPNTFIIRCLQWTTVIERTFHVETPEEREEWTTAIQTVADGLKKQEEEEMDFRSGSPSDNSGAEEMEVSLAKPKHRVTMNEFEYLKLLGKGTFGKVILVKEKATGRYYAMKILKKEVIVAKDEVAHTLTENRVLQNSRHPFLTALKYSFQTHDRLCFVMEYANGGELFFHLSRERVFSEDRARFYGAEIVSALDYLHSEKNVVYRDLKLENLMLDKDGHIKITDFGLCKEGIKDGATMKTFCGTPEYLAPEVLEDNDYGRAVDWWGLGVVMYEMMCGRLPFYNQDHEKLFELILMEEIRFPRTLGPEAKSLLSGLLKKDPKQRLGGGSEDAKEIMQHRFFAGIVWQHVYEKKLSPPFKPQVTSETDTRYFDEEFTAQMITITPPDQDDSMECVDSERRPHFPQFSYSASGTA

PI3K (p120γ) = PI3K (p120γ) (Homo sapiens, UniProt P48736); test: Kinase selectivity panel, PI3K (p120γ); assay type: biochemical
Sequence of UniProt P48736 (P48736 whole entry): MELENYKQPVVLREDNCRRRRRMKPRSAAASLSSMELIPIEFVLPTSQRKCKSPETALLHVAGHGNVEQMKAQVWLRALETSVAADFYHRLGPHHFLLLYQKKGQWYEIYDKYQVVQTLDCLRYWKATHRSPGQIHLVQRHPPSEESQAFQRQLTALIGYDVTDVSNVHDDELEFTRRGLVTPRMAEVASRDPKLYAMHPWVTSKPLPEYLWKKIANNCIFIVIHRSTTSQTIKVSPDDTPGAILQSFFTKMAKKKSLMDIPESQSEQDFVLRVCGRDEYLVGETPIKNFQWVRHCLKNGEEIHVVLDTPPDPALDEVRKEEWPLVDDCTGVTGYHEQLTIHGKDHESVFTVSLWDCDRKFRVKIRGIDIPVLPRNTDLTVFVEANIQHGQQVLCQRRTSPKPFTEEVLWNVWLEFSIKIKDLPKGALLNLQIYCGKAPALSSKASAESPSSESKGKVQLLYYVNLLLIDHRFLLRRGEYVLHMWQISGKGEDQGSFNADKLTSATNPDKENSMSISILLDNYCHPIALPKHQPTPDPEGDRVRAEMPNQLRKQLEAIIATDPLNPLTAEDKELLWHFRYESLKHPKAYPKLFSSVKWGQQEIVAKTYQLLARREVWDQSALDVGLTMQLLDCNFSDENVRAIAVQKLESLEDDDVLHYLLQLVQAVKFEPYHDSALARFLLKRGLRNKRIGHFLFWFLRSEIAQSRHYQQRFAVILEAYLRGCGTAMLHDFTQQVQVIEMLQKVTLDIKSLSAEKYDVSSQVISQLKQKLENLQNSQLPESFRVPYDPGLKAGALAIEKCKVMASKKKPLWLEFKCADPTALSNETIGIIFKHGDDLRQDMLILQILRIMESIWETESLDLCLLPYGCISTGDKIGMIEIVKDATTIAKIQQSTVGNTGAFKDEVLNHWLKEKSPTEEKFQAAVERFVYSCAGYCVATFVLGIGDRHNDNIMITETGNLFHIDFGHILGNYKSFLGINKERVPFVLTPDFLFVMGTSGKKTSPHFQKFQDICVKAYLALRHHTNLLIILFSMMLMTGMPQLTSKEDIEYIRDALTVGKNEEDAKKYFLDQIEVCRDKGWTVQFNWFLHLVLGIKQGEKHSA

p70S6K = p70S6K (Homo sapiens, UniProt P23443); test: Kinase selectivity panel, p70S6K; assay type: biochemical
Sequence of UniProt P23443 (P23443 whole entry): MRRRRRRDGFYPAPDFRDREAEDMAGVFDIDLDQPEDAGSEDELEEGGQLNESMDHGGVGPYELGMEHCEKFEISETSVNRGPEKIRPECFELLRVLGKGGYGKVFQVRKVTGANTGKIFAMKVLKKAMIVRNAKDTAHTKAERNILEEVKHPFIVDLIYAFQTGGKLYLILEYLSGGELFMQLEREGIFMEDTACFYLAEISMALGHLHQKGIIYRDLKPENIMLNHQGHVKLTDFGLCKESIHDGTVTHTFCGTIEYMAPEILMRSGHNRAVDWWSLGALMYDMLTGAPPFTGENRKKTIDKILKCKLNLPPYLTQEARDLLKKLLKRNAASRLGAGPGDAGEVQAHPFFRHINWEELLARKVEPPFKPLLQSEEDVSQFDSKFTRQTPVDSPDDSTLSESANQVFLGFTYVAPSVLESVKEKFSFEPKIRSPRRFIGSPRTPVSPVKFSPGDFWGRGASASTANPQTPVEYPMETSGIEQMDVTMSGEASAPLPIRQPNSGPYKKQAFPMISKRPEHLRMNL

PI3K (p110β/p85α) = PI3K (p110β/p85α) (Homo sapiens, UniProt P42338); test: Kinase selectivity panel, PI3K (p110β/p85α); assay type: biochemical
[5] = system: BxPC3 pancreatic cancer xenografts; test: BxPC3 pancreatic cancer xenografts, tolerability; assay type: in vivo; details: 12.5-75 mg/kg bid over 35 days
PDK1 = target: T1, PDK1 (Homo sapiens, UniProt O15530); test: Kinase selectivity panel, PDK1; assay type: biochemical
T1 sequence (O15530 1-556): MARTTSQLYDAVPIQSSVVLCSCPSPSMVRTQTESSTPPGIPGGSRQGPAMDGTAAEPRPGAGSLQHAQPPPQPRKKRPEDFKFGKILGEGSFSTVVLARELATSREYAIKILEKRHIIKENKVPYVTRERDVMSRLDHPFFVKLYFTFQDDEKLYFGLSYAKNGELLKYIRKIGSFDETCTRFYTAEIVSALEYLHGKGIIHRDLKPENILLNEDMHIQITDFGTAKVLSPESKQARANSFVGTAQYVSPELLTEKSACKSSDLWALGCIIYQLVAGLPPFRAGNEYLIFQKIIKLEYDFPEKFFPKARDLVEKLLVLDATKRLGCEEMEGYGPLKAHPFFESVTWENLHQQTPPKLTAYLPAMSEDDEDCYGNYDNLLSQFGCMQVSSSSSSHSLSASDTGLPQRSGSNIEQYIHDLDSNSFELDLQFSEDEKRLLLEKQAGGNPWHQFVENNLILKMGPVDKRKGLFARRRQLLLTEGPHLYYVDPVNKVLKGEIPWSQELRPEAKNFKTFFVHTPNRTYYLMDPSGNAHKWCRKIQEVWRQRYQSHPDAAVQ

[6] = system: multiple myeloma cell lines; test: VEGF secretion in multiple myeloma cell lines; assay type: cell-based, human; details: 10 μM

Sequence of UniProt P31751 (P31751 whole entry): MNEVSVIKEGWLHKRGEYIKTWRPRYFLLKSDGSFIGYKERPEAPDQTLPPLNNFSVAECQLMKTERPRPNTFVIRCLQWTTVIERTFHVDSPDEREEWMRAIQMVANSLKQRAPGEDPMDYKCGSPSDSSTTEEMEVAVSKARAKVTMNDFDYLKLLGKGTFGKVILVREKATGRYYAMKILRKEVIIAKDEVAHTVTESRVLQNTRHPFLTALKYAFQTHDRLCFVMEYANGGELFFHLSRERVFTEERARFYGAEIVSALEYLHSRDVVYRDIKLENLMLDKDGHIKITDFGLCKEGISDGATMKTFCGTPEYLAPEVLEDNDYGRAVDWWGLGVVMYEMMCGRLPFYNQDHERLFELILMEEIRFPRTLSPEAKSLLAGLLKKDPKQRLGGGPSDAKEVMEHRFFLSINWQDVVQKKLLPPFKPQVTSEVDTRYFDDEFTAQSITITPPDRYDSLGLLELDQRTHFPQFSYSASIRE

Structure (SMILES) | gemcitabine induced DNA damage (comet assay) [1] | IC50 (mTOR) [nM] | IC50 (AKT3) [nM] | IC50 (AKT2) [nM] | anti-tumor activity of the combination with erlotinib (A431 xenografts; erlotinib and CX-4945 combined) | tumor growth, used alone (A431 xenografts) | IC50 (CLK3) [nM] | IC50 (PI3K (p110δ/p85α)) [nM] | production of IL-6 [2] | phosphorylation of Akt and rpS6 [3] | EGF-stimulated CK2 activity (p-Akt S129, p-Akt S473) [4] | anti-tumor activity of the combination with gemcitabine (A2780 xenografts) | phosphorylation of Akt-S129 (Akt-S129 phosphorylation) | IC50 (AKT1) [nM] | IC50 (PI3K (p120γ)) [nM] | IC50 (p70S6K) [nM] | IC50 (PI3K (p110β/p85α)) [nM] | tolerability [5] | IC50 (PDK1) [nM] | secretion of VEGF [6]
O=C(O)c1ccc2c(c1)nc(Nc1cccc(Cl)c1)c1ccncc12 [CX-4945] | increase gemcitabine induced DNA damage | > 500 | > 500 | > 500 | synergistic anti-tumor activity | significant inhibition of tumor growth | 41 | > 500 | reduce the production of IL-6 | reduces the phosphorylation of Akt and rpS6 | significantly inhibit EGF-stimulated CK2 activity | synergistic anti-tumor activity | inhibited phosphorylation of Akt-S129 | > 500 | > 500 | > 500 | > 500 | well tolerated | > 500 | reduced the secretion of VEGF
C#Cc1cccc(Nc2ncnc3cc(OCCOC)c(OCCOC)cc23)c1 [erlotinib, reference compound] | – | – | – | – | – | significant inhibition of tumor growth | – | – | – | – | – | – | – | – | – | – | – | – | – | –
CN[C@@H]1C[C@H]2O[C@@](C)([C@@H]1OC)n1c3ccccc3c3c4c(c5c6ccccc6n2c5c31)C(=O)NC4 [STS, staurosporine, reference compound] | – | – | – | – | – | – | – | – | – | – | – | – | did not affect the phosphorylation | – | – | – | – | – | – | –
